The whole screen tested about 310,000 compounds, of which about 14,000 (4.5%) showed an effect of 50% or more. Effects have a minus sign here. Some of the results follow.
molecular target: human ether-à-go-go-related gene (hERG) potassium channel (human, UniProt Q12809); assay: primary screen, population patch clamp on CHO cells stably expressing hERG
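Also: peak tail current of the secondary pulse compared with the same well before compound.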

human ether-à-go-go-related gene (hERG) potassium channel, sequence (Q12809 whole entry, looked up): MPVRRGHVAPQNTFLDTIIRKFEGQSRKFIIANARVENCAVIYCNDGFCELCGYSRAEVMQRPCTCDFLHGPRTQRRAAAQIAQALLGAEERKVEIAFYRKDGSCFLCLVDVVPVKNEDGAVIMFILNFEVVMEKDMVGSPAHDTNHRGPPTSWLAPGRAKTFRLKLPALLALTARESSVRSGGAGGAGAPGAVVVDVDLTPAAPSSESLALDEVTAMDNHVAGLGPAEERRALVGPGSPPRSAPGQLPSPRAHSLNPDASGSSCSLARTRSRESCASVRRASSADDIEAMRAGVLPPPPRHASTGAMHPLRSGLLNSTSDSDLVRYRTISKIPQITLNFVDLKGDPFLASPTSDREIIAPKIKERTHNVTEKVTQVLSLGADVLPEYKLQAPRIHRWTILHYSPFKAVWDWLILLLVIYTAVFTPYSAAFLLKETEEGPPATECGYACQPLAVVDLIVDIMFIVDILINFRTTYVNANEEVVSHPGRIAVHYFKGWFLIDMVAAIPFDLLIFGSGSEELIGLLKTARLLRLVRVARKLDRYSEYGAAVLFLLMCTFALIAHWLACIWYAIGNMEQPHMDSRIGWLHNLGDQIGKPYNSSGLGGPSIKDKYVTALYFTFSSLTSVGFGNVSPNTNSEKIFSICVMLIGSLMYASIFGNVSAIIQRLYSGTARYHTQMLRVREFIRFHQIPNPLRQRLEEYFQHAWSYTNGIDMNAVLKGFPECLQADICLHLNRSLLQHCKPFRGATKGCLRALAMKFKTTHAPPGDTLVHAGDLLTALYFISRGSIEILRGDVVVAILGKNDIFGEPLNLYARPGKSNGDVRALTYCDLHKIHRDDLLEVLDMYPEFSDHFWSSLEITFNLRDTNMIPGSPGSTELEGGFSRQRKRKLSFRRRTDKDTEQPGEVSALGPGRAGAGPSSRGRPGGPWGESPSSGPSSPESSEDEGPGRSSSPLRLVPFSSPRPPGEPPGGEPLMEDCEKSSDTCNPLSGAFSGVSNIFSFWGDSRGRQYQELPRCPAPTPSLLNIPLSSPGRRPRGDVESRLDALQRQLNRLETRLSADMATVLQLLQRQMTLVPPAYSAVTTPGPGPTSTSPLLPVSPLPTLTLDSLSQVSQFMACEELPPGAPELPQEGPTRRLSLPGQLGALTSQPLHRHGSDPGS

Structure (SMILES) | hERG current change (%, negative = inhibition) at 10uM [%]
Cc1ncc(CO)c(/C=N/NC(=S)Nc2ccc(F)cc2)c1O | 29.2
O=C1Nc2ccccc2N(O)N1c1ccc(S(=O)(=O)N2CCCCCC2)cc1 | 1.75
CC1CCCCN1S(=O)(=O)c1ccc(C(=O)Nc2ccccc2-c2nc3ccccc3s2)cc1 (centres unmarked) | 8.6
C/C(=N\NC(=O)c1c[nH]c2ccccc12)c1ccc2c(c1)OCO2 | 1.64
Cc1ccc(CNC(=O)COc2ccc(C)nc2[N+](=O)[O-])cc1 | -43.6
Cc1ccc2c(c1)CCCN2C(=O)CCc1nc2ccccc2c(=O)[nH]1 | -23.3
COc1ccc(NC(=O)N2CCCc3cc(C)ccc32)c(OC)c1 | -14.2
COc1ccc2c(c1)C(NC(C)=O)C(=O)N2CCc1ccccc1 (centres unmarked) | 5.5
Cc1ccc(-c2nnc(SCC(=O)Nc3cccc(C(=O)N4CCOCC4)c3)n2C)cc1 | -17.4
Cc1sc2nc[nH]c(=O)c2c1-c1ccc(Cl)cc1 | 14.6
CCCC(c1nnnn1Cc1ccco1)N1CCC(C(N)=O)CC1.Cl (centres unmarked) | -11.6
O=C(O)c1cc(NCc2ccccc2)ccc1N1CCOCC1 | 1.3
Cc1ccc(S(=O)(=O)N2CCC(=O)N(CCOCc3ccc(Cl)cc3)CC2)cc1 | -60.1
COc1ccccc1N1CCN(CC(=O)Nc2ccccc2C(=O)NCCc2ccccc2)CC1 | 101
O=C(OCc1ccccc1)c1ccc(Br)o1 | 8.45
C=CCN(C(=O)Nc1ccc(OC)cc1)c1nnc(-c2ccncc2)s1 | -22.3
COC(=O)c1c(C)oc(C)c1S(=O)(=O)N1CCCCC1 | 9.1
COc1cc2[nH]c(-c3ccc(C)cc3)cc(=O)c2cc1OC | 9.96
COc1ccccc1NS(=O)(=O)c1cc(C(=O)NCC(c2ccco2)N2CCCCC2)ccc1C (centres unmarked) | -48.6
C=CCOc1ccc(CN(C)CC(O)COc2ccc(CCC(C)=O)cc2)cc1 (centres unmarked) | -63.6
O=C(CNc1ccc(Br)cc1)Nc1ccc(S(=O)(=O)N2CCCC2)cc1 | -20.1
COc1ccc(S(=O)(=O)NCc2ccncc2)cc1NC(=O)c1ccccc1 | -34.7
O=C(c1ccc2c(c1)OCO2)C1CCCN(Cc2c(F)ccc(F)c2F)C1 (centres unmarked) | -15.8

Structure (SMILES) | hERG current change (%, negative = inhibition) at 10uM [%]
O=[N+]([O-])c1ccccc1SN(Cc1ccccc1)c1ccccn1 | 6.93
CCOC(=O)CC(=O)CSc1[nH]c(=O)cc(C)c1C#N | 5.39
CCN(CC(=O)Nc1c(F)cccc1F)C(=O)CNC(=O)c1ccco1 | 1.29
CC1(C)CC(NC(=O)c2cc(S(=O)(=O)N3CCCCC3)ccc2Cl)CC(C)(C)N1 | -26.3
CCOC(=O)C[N+](CC)(CC)CC#Cc1ccccc1 | 0.628
O=c1c2ccccc2c(-c2ccc(O)cc2)nn1-c1cccc(C(F)(F)F)c1 | -6.54
CCNc1cc2oc(=O)c(CN3CCOCC3)c(C)c2cc1C | -11.4
Cc1c(CC(=O)N[C@@H](CCCNC(N)=O)C(=O)O)c(=O)oc2cc3oc4c(c3cc12)CCCC4 | 39.1
CCOc1cccc(C=NCCc2ccc(OC)c(OC)c2)c1O | 12.4
CCOc1cccc2cc(C(=O)NCc3ccccc3)c(=N)oc12 | 3.3
Cc1c(C)c2ccc(OCC(=O)Nc3ccccc3C(N)=O)cc2oc1=O | 0.123
CC1CC(C)CN(C(=O)C2CCN(S(=O)(=O)c3ccc4c(c3)CC(C)N4C(=O)C3CC3)CC2)C1 (centres unmarked) | -2.32
COc1cc(NC(=O)c2cccc(Br)c2)nc(OC)n1 | 3.34
COC(=O)Nc1nc2ccc(C(=O)c3cccs3)cc2[nH]1 | -2.34
Cc1ccccc1CNC(=O)C(=O)Nc1nccs1 | 52.7
Cc1cccc(Nc2nnc(SCC(=O)NC(=O)CN3CCCC3=O)s2)c1 | 11.4
COc1ccc(Cl)cc1NC(=O)c1[nH]c(C)c(C(C)=O)c1C | 6.22
Cc1cc(C)nc(N2CCC(C(=O)NC3CCCc4ccccc43)CC2)n1 (centres unmarked) | 17.6
COc1ccc(N2C(=O)/C(=C/c3cccs3)NC2=S)cc1 | 17.3
Cc1ccc(-c2nnc(Nc3ccc(CC(N)=O)cc3)c3ccccc23)cc1S(=O)(=O)NCCO | 13.7
O=C(c1ccccc1)n1nnc2ccccc21 | 0.0333
COc1ccc(CCN2C(=O)c3ccccc3NC2c2cc(Cl)c(O)c(OC)c2)cc1 (centres unmarked) | -4.85
CC1=C(C(=O)Nc2ccccc2C)C2(CCCC2)C(C(N)=O)C(=O)N1 (centres unmarked) | 1.79

Structure (SMILES) | hERG current change (%, negative = inhibition) at 10uM [%]
S=c1[nH]nc(-c2ccncc2)n1/N=C/c1ccccc1Cl | 19.6
CCOC(=O)c1c(C)n(C)c2ccc(OC)c(NS(=O)(=O)c3ccc(Cl)s3)c12 | -5.3
Nc1nnc(/C=C/c2ccccc2)s1 | 21.1
CCOC(=O)N1CCN(C(=O)CCSc2ccc(C)cc2)CC1 | -13.8
COc1ccc(Cl)cc1-c1nc(SCC(=O)NC(C)(C)C)n[nH]1 | -3.68
CCc1cc(=O)n2c([nH]c3ccccc32)c1C#N | 15.2
CN(NC(=O)COc1ccccc1)C1=NS(=O)(=O)c2ccccc21 | 26.1
CCOC(=O)[C@@H]1[C@H]2COc3ccc(Br)cc3[C@H]2N2C(=O)N(c3ccc(F)cc3)C(=O)[C@@]12C | 5.43
Cn1cccc1Cc1nnc(SCC(=O)N2CCOCC2)n1-c1ccc(F)cc1 | 11
Cc1nc(N2CCN(c3ccccc3)CC2)[nH]c(=O)c1C | -1.79
CCOC(=O)c1c(-c2ccccc2)nc2ccc(C)cn12 | -16.9
Cc1ccc(S(=O)(=O)Nc2ccc(C(=O)Nc3cc(C)on3)cc2)cc1 | 1.43
C/C(=N\n1nnnc1Nc1ccccc1)c1ccc(N)cc1 | 13.8
CCN(C(=O)c1cc2ccccc2oc1=O)c1ccccc1 | 0.49
O=C(Nc1ccccc1)OCCCc1ccccc1 | -5.8
COc1ccc(C(C(=O)NC(C)(C)C)N(C(=O)CCC(=O)Nc2cc(C)on2)c2cccc(C)c2C)cc1 (centres unmarked) | 14.4
Cn1c(OCc2ccco2)nc2c1c(=O)n(Cc1ccc(Cl)c(Cl)c1)c(=O)n2C | -13.1
c1ccc2c(c1)cnc1ccccc12 | -6.13
Cc1nc2sccn2c(=O)c1Cl | -1.99
CCc1nc(-c2ccc(C)nc2OC)no1 | 18.1
Nn1cc(-c2ccccc2)nc1SCC(=O)NCC1CCCO1 (centres unmarked) | 1.42
C[n+]1ccccc1/C=N/O.[I-] | 2.23
O=C(c1ccc(Cl)c([N+](=O)[O-])c1)N(Cc1cccc(Cl)c1)C1CCS(=O)(=O)C1 (centres unmarked) | -32.5

Structure (SMILES) | hERG current change (%, negative = inhibition) at 10uM [%]
O=C(NCCCN1CCCC1=O)c1cccc(N2CCCC2=O)c1 | 4.33
CCCCCC1(C)NC(=S)N(c2ccccc2)N1 (centres unmarked) | 7.03
N#Cc1ccc(CSc2ccccn2)c(Cl)c1 | 10.6
Cc1ccc(S(=O)(=O)NCCC(=O)Nc2cc(F)ccc2C)cc1C | 2.51
COc1ccc(CC(=O)N2CCN=C2SC)cc1 | 13
CCCCn1c(N)c(NCc2ccccc2OC)c(=O)[nH]c1=O | 12.2
Br.Cn1c(=N)n(CC(=O)c2ccccc2)c2ccccc21 | -12.4
O=S(=O)(NCCc1ccccc1)c1ccc(Cl)nc1 | 10.9
Cc1cccc(N(Cc2ccccc2)C(=O)c2ccccc2S(C)(=O)=O)c1 | 6.57
c1coc(-c2nc3nc4ccccc4n3nc2-c2ccco2)c1 | 12.8
Cc1ccc(NC(=O)CS(=O)CC(=O)N2CCN(C3CCCC3)CC2)cc1 (centres unmarked) | 15.8
CC1CCN(S(=O)(=O)c2cn(CC(=O)N3CC(C)CC(C)C3)c(=O)c3ccccc23)CC1 (centres unmarked) | 6.32
Cc1cc(C)[n+]2n1C(=O)C(c1ccccc1)=C2[O-] | 6.67
CC(C)(C)NC(=O)c1cccc(NC(=O)c2cccc(O)c2)c1 | 5.93
Cc1ccn(CCC(=O)N2CCc3ccccc32)n1 | 15.4
Fc1ccccc1CNC(=S)NCc1ccc(Cl)cc1 | 6
Cc1ccc(NC(=O)c2ccc3c(c2)nnn3C)cc1 | 12
COc1ccc(-c2cc(-c3ccccc3O)[nH]n2)cc1 | 10.3
COc1ccc(/C=C/C(=O)O)cc1S(=O)(=O)N1CCc2ccccc2C1 | 9.41
Cc1ccc(SCC(=O)N/N=C/c2ccco2)cc1 | 0.766
Cn1nnc(NC(=S)NC(=O)c2cccc3ccccc23)n1 | 27.8
COc1ccc(C2=NCC(CSc3nccc(=O)[nH]3)S2)cc1 (centres unmarked) | 1.52
CC1CCC2(CC1)NC(=O)N(CC(=O)c1cn(CCC#N)c3ccccc13)C2=O (centres unmarked) | -13.8

From article PMC4336329 (PLoS ONE, 2015)
